# From PubChem BioAssay (Tox21)
# Values joined by “and” are separate entries in the source; they are usually repeats but may differ in a detail not shown here. Equal entries are not always repeated. The shares of active, inactive and inconclusive entries below differ from those in the screen. Where the call is inconclusive, the potency comes from a doubtful curve fit. Where a structure was tested more than once in an assay, its records may differ in their call. Active and inactive are the calls of the source. Unless noted, the call rests on the fitted dose curve; in most records, active means well fitted curve in the direction sought with a large enough effect in the repeat runs; inconclusive means weak or mixed curves; inactive means no such curve, though single readings can be large; an effect the other way counts as inactive or inconclusive.
# How the values were obtained:
# [1] = target: Peroxisome proliferator-activated receptor gamma (Homo sapiens) (UniProt P37231); test: qHTS assay to identify small molecule antagonists of the peroxisome proliferator-activated receptor gamma (PPARg) signaling pathway (AID 743191; calls by dose curve; further: nearly all actives have a fitted effect of over 30% in size); settings: HEK293H PPARg-UAS-bla, beta-lactamase ratio, antagonist, 17 h; ratio activity, negative = inhibition: at 62.6 µM (top of the series) unless noted
# Sequence of UniProt P37231 (P37231 whole entry, looked up): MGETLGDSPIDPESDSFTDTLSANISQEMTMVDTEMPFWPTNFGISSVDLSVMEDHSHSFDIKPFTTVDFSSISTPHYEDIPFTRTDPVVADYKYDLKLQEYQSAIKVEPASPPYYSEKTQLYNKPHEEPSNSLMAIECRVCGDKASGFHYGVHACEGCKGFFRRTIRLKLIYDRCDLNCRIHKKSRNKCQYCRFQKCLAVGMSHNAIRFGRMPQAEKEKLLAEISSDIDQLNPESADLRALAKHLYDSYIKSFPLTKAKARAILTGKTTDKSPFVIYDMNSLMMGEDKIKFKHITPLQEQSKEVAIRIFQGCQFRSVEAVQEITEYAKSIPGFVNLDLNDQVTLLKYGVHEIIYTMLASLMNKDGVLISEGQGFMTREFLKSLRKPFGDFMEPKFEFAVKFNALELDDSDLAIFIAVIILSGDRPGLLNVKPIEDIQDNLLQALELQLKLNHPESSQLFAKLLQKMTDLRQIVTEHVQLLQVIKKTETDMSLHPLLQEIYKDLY
# How it was run: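 GeneBLAzer PPARg UAS-bla HEK293H cells carrying a UAS-driven beta-lactamase reporter were plated at 3000 cells/well, preincubated 5 h at 37C, then given compound for 17 h at 37C; LiveBLAzer B/G FRET substrate was read after 1 h at room temperature.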
# [2] = qHTS assay for small molecule agonists of the antioxidant response element (ARE) signaling pathway (AID 743202; active means well fitted activation curve with a large enough effect in the signal ratio in the repeat runs, not every such curve was filed as active; inconclusive means weak or mixed curves, or effect the other way; inactive means no such curve, though single readings can be large or run the other way; the % refers to the signal ratio; on activation: on the % scale 0 is the no-effect control and ±100 the full control effect); settings: HepG2 ARE-bla reporter, beta-lactamase FRET, 16 h; activation: at 73.3 µM (top of the series) unless noted
# How it was run: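 Steps: seed ARE-bla HepG2 cells (2,000/well); incubate 5 h at 37 C; add compounds by pin tool; incubate 16 h at 37 C; add FRET substrate; read fluorescence after 2 h at RT.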
# [3] = qHTS assay for small molecule activators of the heat shock response signaling pathway - cell viability counter screen (AID 743209); settings: HSE-bla HeLa viability, CellTiter-Glo luminescence, 5 h; activity change, negative = cytotoxicity: at 62.6 µM (top of the series) unless noted; further: nearly all actives have a fitted effect of over 50% in size
# How it was run: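 Viability of HSE-bla HeLa cells is measured with CellTiter-Glo in the wells already used for the reporter read. Compound exposure lasts 5 h at 37 C, and luminescence is read after 30 min at room temperature.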
# [4] = qHTS assay for small molecule activators of the heat shock response signaling pathway (AID 743210; active means well fitted activation curve with a large enough effect in the signal ratio in the repeat runs, with a control signal flat, not every such curve was filed as active; inconclusive means weak or mixed curves; the % refers to the signal ratio); settings: HeLa HSE-bla reporter, beta-lactamase ratio, 5 h; activation: at 62.6 µM (top of the series)
# How it was run: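 Activation of heat shock element-controlled beta-lactamase expression is measured in HeLa cells by LiveBLAzer FRET fluorescence, with compound exposure lasting 5 h at 37 C and substrate loading 2.5 h at room temperature.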
# [5] = qHTS assay to identify small molecule agonists of the peroxisome proliferator-activated receptor delta (PPARd) signaling pathway - cell viability counter screen (AID 743211); settings: PPARd-bla HEK293H viability, CellTiter-Glo luminescence, 17 h; activity change, negative = cytotoxicity: at 62.6 µM (top of the series); further: nearly all actives have a fitted effect of over 55% in size
# How it was run: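 Counter screen for cytotoxicity run in parallel with the PPARd reporter screen. Beta-lactamase reporter HEK293H cells exposed to compounds 17 h; ATP-based CellTiter-Glo luminescence quantified viability.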
# [6] = target: Peroxisome proliferator-activated receptor delta (Homo sapiens) (UniProt Q03181); test: qHTS assay to identify small molecule agonists of the peroxisome proliferator-activated receptor delta (PPARd) signaling pathway (AID 743212; calls by dose curve); settings: HEK293H PPARd-UAS-bla, beta-lactamase FRET ratio, 17 h; activation: at 62.6 µM (top of the series) unless noted
# Sequence of UniProt Q03181 (Q03181 whole entry, looked up): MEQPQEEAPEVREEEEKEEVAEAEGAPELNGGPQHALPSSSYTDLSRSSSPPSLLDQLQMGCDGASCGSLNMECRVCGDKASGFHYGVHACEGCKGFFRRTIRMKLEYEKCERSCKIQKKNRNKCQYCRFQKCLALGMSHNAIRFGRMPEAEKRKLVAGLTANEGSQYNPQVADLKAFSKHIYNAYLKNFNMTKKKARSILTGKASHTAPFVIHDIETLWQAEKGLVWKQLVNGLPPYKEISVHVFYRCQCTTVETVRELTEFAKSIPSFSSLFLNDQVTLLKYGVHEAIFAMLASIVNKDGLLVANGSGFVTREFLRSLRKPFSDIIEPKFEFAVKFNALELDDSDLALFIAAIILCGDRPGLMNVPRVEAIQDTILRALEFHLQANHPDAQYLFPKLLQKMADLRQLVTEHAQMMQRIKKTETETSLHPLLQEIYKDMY
# How it was run: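 Cells expressing a UAS-driven beta-lactamase reporter (PPARd-bla HEK293H) were given test compounds after a 5 h settle and kept at 37 C. Reporter activity was then measured as FRET fluorescence using LiveBLAzer B/G substrate.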
# [7] = qHTS assay to identify small molecule antagonists of the peroxisome proliferator-activated receptor delta (PPARd) signaling pathway - cell viability counter screen (AID 743213); settings: PPARd-bla HEK293H viability, CellTiter-Glo luminescence, 17 h; viability change, negative = cytotoxic: at 62 µM (top of the series) unless noted; further: nearly all actives have a fitted effect of over 50% in size
# How it was run: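 PPARd-bla HEK293H cells were treated with compounds plus agonist L165041 (300 nM final) for 17 h at 37 C. Viability was then read in the same wells by CellTiter-Glo luminescence after 30 min at room temperature.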
# [8] = qHTS assay to identify small molecule agonists of the farnesoid-X-receptor (FXR) signaling pathway - cell viability counter screen (AID 743218); settings: FXR-bla HEK293T viability, CellTiter-Glo luminescence, 16 h; viability change, negative = cytotoxic: at 62.6 µM (top of the series) unless noted; further: nearly all actives have a fitted effect of over 45% in size; on viability change, negative = cytotoxic: on the % scale 0 is the no-effect control and ±100 the full control effect
# How it was run: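 Viability of FXR-bla HEK 293T cells is measured by ATP-based CellTiter-Glo luminescence following 16 h compound treatment at 37 C and a prior 2 h room-temperature beta-lactamase substrate step.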
# [9] = qHTS assay to identify small molecule antagonists of the farnesoid-X-receptor (FXR) signaling pathway - cell viability counter screen (AID 743221; active means well fitted cell-killing curve with a large enough effect in the repeat runs, not every such curve was filed as active; inconclusive means weak or mixed curves, or effect the other way; inactive means no such curve, though single readings can be large or run the other way; further: nearly all actives have a fitted effect of over 50% in size); settings: FXR-bla HEK293T viability, CellTiter-Glo luminescence, 16 h; activity change, negative = cytotoxicity: at 62.6 µM (top of the series)
# How it was run: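 Multiplexed counter screen: viability of FXR-bla HEK 293T cells under agonist stimulation by chenodeoxycholic acid (50 uM, final) and test compound for 16 h at 37 C, measured by CellTiter-Glo luminescence in the reporter wells.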
# [10] = target: Vitamin D3 receptor (Homo sapiens) (UniProt P11473); test: qHTS assay to identify small molecule agonists of the vitamin D receptor (VDR) signaling pathway (AID 743222; calls by dose curve; on activation: on the % scale 0 is the no-effect control and ±100 the full control effect); settings: HEK293T VDR-UAS-bla, beta-lactamase FRET ratio, 16 h; activation: at 63.5 µM (top of the series) unless noted
# Sequence of UniProt P11473 (P11473 whole entry, looked up): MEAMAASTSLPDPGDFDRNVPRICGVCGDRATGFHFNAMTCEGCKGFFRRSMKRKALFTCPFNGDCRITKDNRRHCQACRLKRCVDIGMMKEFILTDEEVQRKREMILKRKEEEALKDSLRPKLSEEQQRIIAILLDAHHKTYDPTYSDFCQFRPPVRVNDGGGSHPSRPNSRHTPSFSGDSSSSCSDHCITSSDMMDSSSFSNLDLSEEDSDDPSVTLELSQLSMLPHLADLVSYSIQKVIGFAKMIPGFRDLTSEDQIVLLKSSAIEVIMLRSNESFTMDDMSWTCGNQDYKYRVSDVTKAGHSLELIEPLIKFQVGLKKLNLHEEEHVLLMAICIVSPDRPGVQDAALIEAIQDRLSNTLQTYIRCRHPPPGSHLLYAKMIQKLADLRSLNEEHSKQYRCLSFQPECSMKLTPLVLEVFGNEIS
# How it was run: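 Fluorescence from cleaved LiveBLAzer B/G FRET substrate served as readout. VDR-bla cells had been treated 16 h at 37C with test compounds in DMSO, following a 4 h settling period, and substrate was loaded for 2 h at RT.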
# [11] = target: Vitamin D3 receptor (Homo sapiens) (UniProt P11473); test: qHTS assay to identify small molecule antagonists of the vitamin D receptor (VDR) signaling pathway (AID 743223; active means well fitted inhibition curve with a large enough effect in the signal ratio in the repeat runs, not every such curve was filed as active; inconclusive means weak or mixed curves, or effect the other way; inactive means no such curve, though single readings can be large or run the other way; the % refers to the signal ratio; on activity change, negative = inhibition: on the % scale 0 is the no-effect control and ±100 the full control effect); settings: VDR-UAS-bla HEK293T, beta-lactamase FRET ratio, 16 h
# How it was run: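 Cells carrying a VDR-driven beta-lactamase reporter (VDR-bla) were co-treated with compound and 3 nM final 1alpha,25-dihydroxyvitamin D3 for 16 h at 37C; reporter activity was measured as FRET substrate fluorescence after 2 h at room temperature.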
# [12] = qHTS assay to identify small molecule agonists of the vitamin D receptor (VDR) signaling pathway - cell viability counter screen (AID 743224); settings: VDR-bla HEK293T viability, CellTiter-Glo luminescence, 16 h; activity change, negative = cytotoxicity: at 62.6 µM (top of the series) unless noted; further: nearly all actives have a fitted effect of over 50% in size
# How it was run: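 Compounds were pin-transferred onto VDR-bla cells plated 4 h earlier; following 16 h incubation at 37C, cell viability was quantified by CellTiter-Glo luminescence after 30 min at room temperature.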
# [13] = qHTS assay to identify small molecule antagonists of the vitamin D receptor (VDR) signaling pathway - cell viability counter screen (AID 743225); settings: VDR-bla HEK293T viability, CellTiter-Glo luminescence, 16 h; viability change, negative = cytotoxic: at 61 µM (top of the series) unless noted; further: nearly all actives have a fitted effect of over 50% in size
# How it was run: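 HEK293T VDR-bla; cpd + 1a,25-(OH)2D3 3 nM final, 16 h 37C/5% CO2; B/G FRET substrate 2 h RT; then CellTiter-Glo 30 min RT, luminescence.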
# [14] = target: Peroxisome proliferator-activated receptor delta (Homo sapiens) (UniProt Q03181); test: qHTS assay to identify small molecule antagonists of the peroxisome proliferator-activated receptor delta (PPARd) signaling pathway (AID 743215; active means well fitted inhibition curve with a large enough effect in the signal ratio in the repeat runs, not every such curve was filed as active; inconclusive means weak or mixed curves, or effect the other way; inactive means no such curve, though single readings can be large or run the other way; the % refers to the signal ratio;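 further: cells stimulated with agonist L165041 at 300 nM final during compound exposure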); settings: HEK293H PPARd-UAS-bla, beta-lactamase FRET ratio, antagonist, 17 h; ratio activity, negative = inhibition: at 62 µM (top of the series) unless noted
# How it was run: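 Plated HEK293H PPARd-bla cells rested 5 h at 37 C and 5% CO2. Compound, then agonist L165041 at 300 nM final, was added; 17 h at 37 C followed. Substrate loading, 2 h room temperature, fluorescence measured.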
# [15] = qHTS assay to identify small molecule antagonists of the peroxisome proliferator-activated receptor gamma (PPARg) signaling pathway - cell viability counter screen (AID 743194); settings: PPARg-bla HEK293H viability, CellTiter-Glo luminescence, 17 h, co-treated with 50 nM rosiglitazone; activity change, negative = cytotoxicity: at 62.6 µM (top of the series) unless noted; further: nearly all actives have a fitted effect of over 55% in size
# How it was run: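 PPARg-UAS-bla HEK293H cells were plated, rested 5 h at 37 C, then treated with compounds plus rosiglitazone (50 nM final) for 17 h at 37 C; viability was then read by CellTiter-Glo luminescence after 30 min at room temperature.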
# [16] = target: Bile acid receptor (Homo sapiens) (UniProt Q96RI1); test: qHTS assay to identify small molecule antagonists of the farnesoid-X-receptor (FXR) signaling pathway (AID 743217; active means well fitted inhibition curve with a large enough effect in the signal ratio in the repeat runs, not every such curve was filed as active; inconclusive means weak or mixed curves, or effect the other way; inactive means no such curve, though single readings can be large or run the other way; the % refers to the signal ratio); settings: HEK293T FXR-UAS-bla, beta-lactamase ratio, CDCA-stimulated, 16 h; activity change, negative = inhibition: at 62.6 µM (top of the series) unless noted
# Sequence of UniProt Q96RI1 (Q96RI1 whole entry, looked up): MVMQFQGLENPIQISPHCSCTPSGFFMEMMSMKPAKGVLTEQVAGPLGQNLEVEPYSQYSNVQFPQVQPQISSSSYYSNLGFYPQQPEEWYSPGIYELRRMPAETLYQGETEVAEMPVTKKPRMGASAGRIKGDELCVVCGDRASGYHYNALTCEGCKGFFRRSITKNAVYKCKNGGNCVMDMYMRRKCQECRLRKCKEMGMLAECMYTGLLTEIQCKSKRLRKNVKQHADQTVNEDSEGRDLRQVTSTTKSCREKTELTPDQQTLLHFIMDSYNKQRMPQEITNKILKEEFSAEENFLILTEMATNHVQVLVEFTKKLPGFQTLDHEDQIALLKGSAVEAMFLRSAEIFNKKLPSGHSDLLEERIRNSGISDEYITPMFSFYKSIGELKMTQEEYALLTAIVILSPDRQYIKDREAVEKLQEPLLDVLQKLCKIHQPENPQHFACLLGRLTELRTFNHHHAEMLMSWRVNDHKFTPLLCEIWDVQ
# How it was run: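 Screen of the Tox21 10K library in quantitative HTS format using FXR-UAS-bla HEK 293T reporter cells. Agonist chenodeoxycholic acid, 50 uM final, added with compounds; 16 h incubation at 37 °C; beta-lactamase FRET fluorescence measured.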
# [17] = target: Bile acid receptor (Homo sapiens) (UniProt Q96RI1); test: qHTS assay to identify small molecule agonists of the farnesoid-X-receptor (FXR) signaling pathway (AID 743220; active means well fitted activation curve with a large enough effect in the signal ratio in the repeat runs, not every such curve was filed as active; inconclusive means weak or mixed curves, or effect the other way; the % refers to the signal ratio); settings: HEK293T FXR-UAS-bla, beta-lactamase FRET ratio, 16 h; activation: at 62.6 µM (top of the series) unless noted
# How it was run: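 FXR-UAS-bla HEK 293T cells carrying a UAS-driven beta-lactamase reporter were plated for 5 h at 37C/5% CO2, then exposed to DMSO-dissolved Tox21 10K compounds for 16 h at 37C. A LiveBLAzer B/G FRET substrate was loaded for 2 h at room temperature before fluorescence reading.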
# [18] = activity change, negative = inhibition: at 61 µM (top of the series) unless noted
# Potency means the concentration at half of the fitted maximal effect; tags describe the fitted curve by direction and shape or compound fluorescence and quenching.
smiles,measurement,setting,value
NC(=O)N/N=C/c1ccc([N+](=O)[O-])o1,Potency,[1],inconclusive: 30.9 µM [activator]
same,Potency,[2],inactive and inconclusive: 12.2 µM and active: 11.9 µM
same,Potency,[3],"inconclusive: 5.49 µM [cytotoxic, full curve]"
same,Potency,[4],inconclusive: 57.5 µM [activator]
same,Potency,[5],"inconclusive: 15.4 µM [cytotoxic, single point]"
same,Potency,[6],"inconclusive: 54.9 µM [phenotype inactive, partial curve, poor fit]"
same,Potency,[7],"inconclusive: 12 µM [cytotoxic, single point] and inconclusive: 11 µM [cytotoxic, single point]"
same,Potency,[8],"inconclusive: 0.211 µM [rising, full curve, poor fit]"
same,"viability change, negative = cytotoxic",[8],inconclusive: 16.4% [cytotoxic] [at 81.1 µM]
same,Potency,[9],"inconclusive: 68.6 µM [phenotype inactive, partial curve, poor fit]"
same,Potency,[10],inactive
same,Potency,[11]; [18],"inactive and inconclusive: 24.5 nM [inhibitor, full curve, poor fit]"
same,Potency,[12],"inconclusive: 54.9 µM [cytotoxic, single point]"
same,Potency,[13],"inconclusive: 13.8 µM [cytotoxic, partial curve, poor fit]"
c1ccc2[nH]ccc2c1,"ratio activity, negative = inhibition",[1],inconclusive: 2.38%
same,Potency,[2],inactive
same,Potency,[3],"inconclusive: 49 µM [rising, partial curve, poor fit]"
same,Potency,[7],"inconclusive: 7.5 µM [cytotoxic, single point]"
same,Potency,[14],inactive
same,Potency,[11]; [18],inactive
same,Potency,[12],"inconclusive: 7.5 µM [cytotoxic, single point]"
CCC(C)OC(=O)c1ccc(O)cc1 (stereo unspecified),"ratio activity, negative = inhibition",[1],inconclusive: -13.3%
same,Potency,[15],inactive
same,activation,[2],inconclusive: 36.8%
same,Potency,[6],inactive
same,"viability change, negative = cytotoxic",[7],inconclusive: -16.8% [cytotoxic] [at 80.4 µM]
same,Potency,[14],"inconclusive: 6.92 µM [rising, partial curve]"
same,Potency,[13],"inconclusive: 24.7 µM [cytotoxic, single point] and inconclusive: 195 nM [cytotoxic, single point]"
C#C[C@]1(O)CC[C@H]2[C@@H]3CCC4=CC(=O)CC[C@@H]4[C@H]3CC[C@@]21CC,"ratio activity, negative = inhibition",[1],inconclusive: 4.07% and inconclusive: -23.3% and inconclusive: 17.2%
same,Potency,[15],inactive
same,Potency,[8],"inconclusive: 27.5 µM [rising, partial curve, poor fit]"
same,Potency,[9],"inconclusive: 7.76 µM [rising, full curve, poor fit]"
same,Potency,[11]; [18],"inconclusive: 23.9 µM [activator, partial curve, poor fit]"
same,"activity change, negative = inhibition",[11]; [18],inconclusive: 21.8%
same,"activity change, negative = inhibition",[11]; at 61 µM (top of the series),inactive: 6.56% and inactive: -2.77%
same,Potency,[12],"inconclusive: 4.9 µM [cytotoxic, full curve, poor fit]"
same,Potency,[13],"inconclusive: 19.5 µM [rising, partial curve, poor fit]"
Nc1ccc2c(c1)C(=O)c1ccccc1C2=O,Potency,[1],inactive
same,Potency,[2],"inconclusive: 1.9 µM [rising, full curve] and inconclusive: 3.86 µM [rising, full curve]"
same,Potency,[4],"inconclusive: 60.5 µM [falling, partial curve, poor fit]"
same,Potency,[7],inactive
same,Potency,[8],inactive
CC(=O)c1cc2ccccc2s1,"ratio activity, negative = inhibition",[1],inconclusive: 11.5%
same,Potency,[15],"inconclusive: 0.106 µM [cytotoxic, single point]"
same,Potency,[7],inactive
same,"ratio activity, negative = inhibition",[14],inconclusive: 10.5%
same,activation,[10],inconclusive: 8.4%
C/C=C/C=N/NC(=O)c1ccncc1,Potency,[1],inactive
same,Potency,[2],active: 6.68 µM
same,Potency,[4],inconclusive: 31.6 µM
same,Potency,[5],"inconclusive: 29.8 µM [cytotoxic, single point]"
same,Potency,[6],inactive
same,Potency,[14],"inconclusive: 33.5 µM [inhibitor, partial curve, poor fit]"
same,Potency,[8],inactive
same,Potency,[10],inconclusive: 26.6 µM [partial curve]
same,Potency,[12],"inconclusive: 33.5 µM [cytotoxic, single point]"
COc1ccc(-n2nc(CCC(=O)N(C)O)cc2-c2ccc(Cl)cc2)cc1,Potency,[1],active: 3.76 µM
same,Potency,[2],"inconclusive: 1.5 µM [falling, full curve]"
same,Potency,[4],inconclusive: 17.4 µM
same,Potency,[5],"inconclusive: 11.9 µM [cytotoxic, partial curve, poor fit]"
same,Potency,[14],"inconclusive: 23.7 µM [cytotoxic, partial curve, poor fit]"
same,Potency,[16],"inconclusive: 16.8 µM [cytotoxic, partial curve, poor fit]"
same,Potency,[8],"inconclusive: 3.76 µM [cytotoxic, full curve]"
same,Potency,[17],inconclusive: 18.8 µM [partial curve]
same,Potency,[12],inconclusive: 26.6 µM [cytotoxic]
same,Potency,[13],inactive
